Measured values: the supplement of paper PMC10369915
The list shows a part of the results. No stated cut-off is given here; in the data, active = 3.2 or more and inactive = the rest. Only a few entries rise above the background.

Key:
Assay in all cases: enrichment score (SH2-bound / input frequency) (ratio); bacterial display of known human phosphotyrosine sites (pTyr-Var adds point mutants) read by sequencing; higher = stronger binding; tyrosines were phosphorylated by kinases first
Details in all cases: peptide library: pTyr-Var
SHP2 C-SH2 domain E139D = biological target: SHP2 C-SH2 domain E139D
[1] = biological target: SHP2 C-SH2 domain wild-type
SHP2 N-SH2 domain L43F = biological target: SHP2 N-SH2 domain L43F
SHP2 N-SH2 domain T42A = biological target: SHP2 N-SH2 domain T42A
SHP2 N-SH2 domain T52S = biological target: SHP2 N-SH2 domain T52S
[2] = biological target: SHP2 N-SH2 domain wild-type

Measured: enrichment score
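Further: displayed peptides selected on beads carrying the immobilized SH2 domain, with library peptides lacking any tyrosine serving as negative controls.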

PPLMLYNPTTY [EGFR_Y270]
inactive: SHP2 C-SH2 domain E139D 0.991 | [1] 0.729 | SHP2 N-SH2 domain L43F 1.35 | SHP2 N-SH2 domain T42A 0.796 | SHP2 N-SH2 domain T52S 1.08 | [2] 0.855

SGADSYEMEED [EGFR_Y316_C311S]
inactive: SHP2 C-SH2 domain E139D 0.388 | [1] 0.457 | SHP2 N-SH2 domain L43F 0.344 | SHP2 N-SH2 domain T42A 0.46 | SHP2 N-SH2 domain T52S 0.35 | [2] 0.497

AFSTVYKGLWI [EGFR_Y727_G724S]
inactive: SHP2 C-SH2 domain E139D 1.53 | [1] 1.48 | SHP2 N-SH2 domain L43F 1.35 | SHP2 N-SH2 domain T42A 3.16 | SHP2 N-SH2 domain T52S 1.66 | [2] 1.16

AEEKEYHAEEG [EGFR_Y869_G873E]
inactive: SHP2 C-SH2 domain E139D 0.409 | [1] 0.631 | SHP2 N-SH2 domain L43F 0.553 | SHP2 N-SH2 domain T42A 0.479 | SHP2 N-SH2 domain T52S 0.402 | [2] 0.676

KLQKYYRKNPD [EHHADH_Y683_Q685K]
inactive: SHP2 C-SH2 domain E139D 0.836 | [1] 0.571 | SHP2 N-SH2 domain L43F 0.586 | SHP2 N-SH2 domain T42A 0.488 | SHP2 N-SH2 domain T52S 0.731 | [2] 0.782

GIADDYDKKKP [EIF1_Y54_L59P]
inactive: SHP2 C-SH2 domain E139D 0.668 | [1] 0.533 | SHP2 N-SH2 domain L43F 0.472 | SHP2 N-SH2 domain T42A 0.583 | SHP2 N-SH2 domain T52S 0.656 | [2] 0.719

QTENKYDSVSG [EIF2AK3_Y565]
inactive: SHP2 C-SH2 domain E139D 0.395 | [1] 0.561 | SHP2 N-SH2 domain L43F 0.277 | SHP2 N-SH2 domain T42A 0.373 | SHP2 N-SH2 domain T52S 0.626 | [2] 0.611

QTENKYVSVSG [EIF2AK3_Y565_D566V]
inactive: SHP2 C-SH2 domain E139D 0.715 | [1] 0.978 | SHP2 N-SH2 domain L43F 0.495 | SHP2 N-SH2 domain T42A 0.759 | SHP2 N-SH2 domain T52S 0.449 | [2] 0.495

IKNSGYISQFL [EIF2AK3_Y585_R588Q_YF]
inactive: SHP2 C-SH2 domain E139D 1.14 | [1] 1.3 | SHP2 N-SH2 domain L43F 1.1 | SHP2 N-SH2 domain T42A 1.21 | SHP2 N-SH2 domain T52S 1.15 | [2] 0.872

VDSLRYIYPKL [EIF2B3_Y92_A87V]
active: SHP2 N-SH2 domain L43F 4.38 | SHP2 N-SH2 domain T42A 4.46 | SHP2 N-SH2 domain T52S 5.74
inactive: SHP2 C-SH2 domain E139D 0.958 | [1] 1.36 | [2] 2.41

ADSLRYIFPKL [EIF2B3_Y92_YF]
active: SHP2 N-SH2 domain L43F 8.37 | SHP2 N-SH2 domain T42A 7.69 | SHP2 N-SH2 domain T52S 10.4 | [2] 3.34
inactive: SHP2 C-SH2 domain E139D 1.29 | [1] 1.86

QLGLQYSQGLV [EIF2B4_Y214_R209Q]
inactive: SHP2 C-SH2 domain E139D 1.41 | [1] 1.05 | SHP2 N-SH2 domain L43F 1.28 | SHP2 N-SH2 domain T42A 1.18 | SHP2 N-SH2 domain T52S 1.41 | [2] 1.57

IRRWVYPLTPE [EIF2B5_Y319]
inactive: SHP2 C-SH2 domain E139D 0.701 | [1] 0.523 | SHP2 N-SH2 domain L43F 0.653 | SHP2 N-SH2 domain T42A 0.68 | SHP2 N-SH2 domain T52S 0.535 | [2] 0.514

ICRWVYPLTPE [EIF2B5_Y319_R315C]
inactive: SHP2 C-SH2 domain E139D 1.21 | [1] 1.09 | SHP2 N-SH2 domain L43F 1.04 | SHP2 N-SH2 domain T42A 0.942 | SHP2 N-SH2 domain T52S 1.16 | [2] 0.993

IGRWVYPLTPE [EIF2B5_Y319_R315G]
inactive: SHP2 C-SH2 domain E139D 1.67 | [1] 1.46 | SHP2 N-SH2 domain L43F 1.64 | SHP2 N-SH2 domain T42A 1.57 | SHP2 N-SH2 domain T52S 1.62 | [2] 1.53

INSLKYAYNVS [EIF2B5_Y583_I587V]
inactive: SHP2 C-SH2 domain E139D 0.758 | [1] 0.711 | SHP2 N-SH2 domain L43F 0.708 | SHP2 N-SH2 domain T42A 0.75 | SHP2 N-SH2 domain T52S 0.829 | [2] 0.699

GSERDYTYEEL [EIF2S2_Y174]
inactive: SHP2 C-SH2 domain E139D 0.633 | [1] 0.635 | SHP2 N-SH2 domain L43F 0.6 | SHP2 N-SH2 domain T42A 0.536 | SHP2 N-SH2 domain T52S 0.503 | [2] 0.552

GSERDYTFDEL [EIF2S2_Y174_E177D_YF]
inactive: SHP2 C-SH2 domain E139D 0.561 | [1] 0.586 | SHP2 N-SH2 domain L43F 0.665 | SHP2 N-SH2 domain T42A 0.426 | SHP2 N-SH2 domain T52S 0.533 | [2] 0.697

ERDYTYDELLN [EIF2S2_Y176_E177D]
inactive: SHP2 C-SH2 domain E139D 0.708 | [1] 0.672 | SHP2 N-SH2 domain L43F 0.568 | SHP2 N-SH2 domain T42A 0.705 | SHP2 N-SH2 domain T52S 0.531 | [2] 0.989

ERDFTYDELLN [EIF2S2_Y176_E177D_YF]
inactive: SHP2 C-SH2 domain E139D 0.682 | [1] 0.685 | SHP2 N-SH2 domain L43F 0.637 | SHP2 N-SH2 domain T42A 0.627 | SHP2 N-SH2 domain T52S 0.667 | [2] 0.85

VNNTVYGIDAM [EIF3J_Y143_A141T]
inactive: SHP2 C-SH2 domain E139D 0.697 | [1] 0.665 | SHP2 N-SH2 domain L43F 0.569 | SHP2 N-SH2 domain T42A 0.475 | SHP2 N-SH2 domain T52S 0.613 | [2] 0.758

KGIDRYNPENL [EIF3K_Y21]
inactive: SHP2 C-SH2 domain E139D 0.931 | [1] 0.854 | SHP2 N-SH2 domain L43F 0.978 | SHP2 N-SH2 domain T42A 0.759 | SHP2 N-SH2 domain T52S 0.882 | [2] 0.789

RWQQLYDTLNA [EIF3M_Y351_Q346R]
inactive: SHP2 C-SH2 domain E139D 0.789 | [1] 1.19 | SHP2 N-SH2 domain L43F 0.82 | SHP2 N-SH2 domain T42A 1.09 | SHP2 N-SH2 domain T52S 0.883 | [2] 1.13

AIIEEYLHLND [EIF4G1_Y1253]
inactive: SHP2 C-SH2 domain E139D 0.948 | [1] 0.833 | SHP2 N-SH2 domain L43F 0.88 | SHP2 N-SH2 domain T42A 0.944 | SHP2 N-SH2 domain T52S 0.898 | [2] 0.977

AIIEEYLHLSD [EIF4G1_Y1253_N1257S]
inactive: SHP2 C-SH2 domain E139D 0.935 | [1] 0.973 | SHP2 N-SH2 domain L43F 1.02 | SHP2 N-SH2 domain T42A 0.984 | SHP2 N-SH2 domain T52S 1.02 | [2] 1

LTTEAYEWEPC [ELMOD3_Y61_R66C]
inactive: SHP2 C-SH2 domain E139D 0.881 | [1] 1.07 | SHP2 N-SH2 domain L43F 0.857 | SHP2 N-SH2 domain T42A 0.421 | SHP2 N-SH2 domain T52S 0.579 | [2] 0.915

GVPLGYPIKAP [ELN_Y206]
inactive: SHP2 C-SH2 domain E139D 0.876 | [1] 0.771 | SHP2 N-SH2 domain L43F 0.684 | SHP2 N-SH2 domain T42A 0.631 | SHP2 N-SH2 domain T52S 0.627 | [2] 0.774

GVPLGYPIKAS [ELN_Y206_P211S]
inactive: SHP2 C-SH2 domain E139D 0.883 | [1] 0.896 | SHP2 N-SH2 domain L43F 0.868 | SHP2 N-SH2 domain T42A 0.789 | SHP2 N-SH2 domain T52S 0.782 | [2] 0.9

YEPDAYYDLDQ [ELP5_Y302_D303Y]
inactive: SHP2 C-SH2 domain E139D 0.769 | [1] 0.862 | SHP2 N-SH2 domain L43F 0.706 | SHP2 N-SH2 domain T42A 0.626 | SHP2 N-SH2 domain T52S 0.717 | [2] 0.947

FEPDAYDDLDQ [ELP5_Y302_YF]
inactive: SHP2 C-SH2 domain E139D 0.463 | [1] 0.361 | SHP2 N-SH2 domain L43F 0.41 | SHP2 N-SH2 domain T42A 0.405 | SHP2 N-SH2 domain T52S 0.406 | [2] 0.643

SLDLSYYTTSS [EMD_Y181_P183T]
inactive: SHP2 C-SH2 domain E139D 1.03 | [1] 0.917 | SHP2 N-SH2 domain L43F 0.894 | SHP2 N-SH2 domain T42A 0.848 | SHP2 N-SH2 domain T52S 1 | [2] 0.936

SLDLSYFTTSS [EMD_Y181_P183T_YF]
inactive: SHP2 C-SH2 domain E139D 1.5 | [1] 1.22 | SHP2 N-SH2 domain L43F 0.991 | SHP2 N-SH2 domain T42A 1.18 | SHP2 N-SH2 domain T52S 1.17 | [2] 1.18

SLDLSYFPTSS [EMD_Y181_YF]
inactive: SHP2 C-SH2 domain E139D 1.02 | [1] 0.986 | SHP2 N-SH2 domain L43F 1.11 | SHP2 N-SH2 domain T42A 0.852 | SHP2 N-SH2 domain T52S 1.15 | [2] 1.21

LDLSYYHTSSS [EMD_Y182_P183H]
inactive: SHP2 C-SH2 domain E139D 0.827 | [1] 0.67 | SHP2 N-SH2 domain L43F 0.635 | SHP2 N-SH2 domain T42A 0.821 | SHP2 N-SH2 domain T52S 0.982 | [2] 0.616

LDLSYYTTSSS [EMD_Y182_P183T]
inactive: SHP2 C-SH2 domain E139D 1.18 | [1] 1.2 | SHP2 N-SH2 domain L43F 1.46 | SHP2 N-SH2 domain T42A 1.21 | SHP2 N-SH2 domain T52S 1.28 | [2] 1.04

LDLSFYTTSSS [EMD_Y182_P183T_YF]
inactive: SHP2 C-SH2 domain E139D 1.24 | [1] 1.36 | SHP2 N-SH2 domain L43F 1.5 | SHP2 N-SH2 domain T42A 1.12 | SHP2 N-SH2 domain T52S 1.04 | [2] 1.2

LDLSFYPTSSS [EMD_Y182_YF]
inactive: SHP2 C-SH2 domain E139D 1.5 | [1] 1.2 | SHP2 N-SH2 domain L43F 1.13 | SHP2 N-SH2 domain T42A 0.89 | SHP2 N-SH2 domain T52S 1.38 | [2] 1.47
